Measured values published in publication PMC6919601, “Identification of Plasmodium dipeptidyl aminopeptidase allosteric inhibitors by high throughput screening” (PLoS ONE, 2019).
Several values for one entry are separate records, joined by “and”; a condition that tells them apart may be missing. Identical values can stand only once. The campaign covered roughly 110,000 compounds. About 230 (0.21%) showed an effect of 50% or more. The list shows a part of the results.

Biological target: DPAP1 (Plasmodium falciparum, UniProt Q8IIJ9)
Experiment: primary screen, percent inhibition; read by cleavage of a fluorogenic dipeptide substrate; higher = more effect of the substance
Design: species or system P. falciparum D10 trophozoite lysates; single well
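Also: 30 min substrate incubation versus DMSO and 10 µM JCP410 controls.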

Sequence of DPAP1 (Q8IIJ9 whole entry, looked up): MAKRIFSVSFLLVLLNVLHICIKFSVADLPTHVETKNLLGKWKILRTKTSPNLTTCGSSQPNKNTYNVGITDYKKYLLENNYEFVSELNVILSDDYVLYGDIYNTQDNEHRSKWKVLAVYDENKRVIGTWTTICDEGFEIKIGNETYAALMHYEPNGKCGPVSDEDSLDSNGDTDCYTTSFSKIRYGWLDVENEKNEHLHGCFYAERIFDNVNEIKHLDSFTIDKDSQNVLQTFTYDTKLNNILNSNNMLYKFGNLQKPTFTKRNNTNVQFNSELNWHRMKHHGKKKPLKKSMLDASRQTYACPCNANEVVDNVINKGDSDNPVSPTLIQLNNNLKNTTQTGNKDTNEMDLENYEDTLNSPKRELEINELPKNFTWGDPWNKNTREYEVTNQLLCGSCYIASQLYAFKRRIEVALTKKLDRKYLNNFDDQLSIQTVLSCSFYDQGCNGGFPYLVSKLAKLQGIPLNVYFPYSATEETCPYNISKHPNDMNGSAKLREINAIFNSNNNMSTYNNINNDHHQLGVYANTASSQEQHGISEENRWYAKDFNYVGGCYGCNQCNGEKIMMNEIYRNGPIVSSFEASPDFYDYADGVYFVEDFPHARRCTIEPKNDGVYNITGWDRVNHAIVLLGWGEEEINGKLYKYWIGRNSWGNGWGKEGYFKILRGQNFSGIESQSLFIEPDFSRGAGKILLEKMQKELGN

SMILES	% Inhibition @ 10 uM
Cc1ccc(/N=C2\C(=O)N(CN3CC(C)OC(C)C3)c3ccccc32)cc1C (stereo not drawn)	-0.759%
O=C(NCCN(Cc1ccco1)C1CCCC1)c1cc2ccc3cccnc3c2[nH]1	-3.84%
CCC(=O)Oc1ccc(CNC(C)(C)C)cc1	1.7%
COc1ccc(CSc2nncn2N)cc1Cl	-1.26%
COc1ccc2[nH]c3c(=O)n(CCCCC(=O)NCCc4sccc4C)c(=S)[nH]c3c2c1	0.351%
O=C(CN(c1ccc(-c2ccccc2)cc1)S(=O)(=O)c1ccccc1)N1CCCCC1	1.93%
COc1ccc(-c2noc(CNC(=O)COc3ccc(C(C)C)cc3Br)n2)cc1	0.486%
CCC(C)(C)C1CCc2c(sc(NC(=O)C(C)C)c2C(N)=O)C1 (stereo not drawn)	-0.865%
Cc1ccc(Cn2cnc3cc(C)c(C)cc32)cc1	-7.83%
CC(=O)Nc1ccc(S(=O)(=O)Nc2ccc(Cl)cc2)cc1	-7.5%
COCCNC(=O)c1cnc2ccc(S(=O)(=O)N3CCOCC3)cc2c1O	-3.21%
CCO/C(O)=C1\C(C)=NC2=C(C(=O)CCC2)C1c1ccccc1OCc1ccccc1 (stereo not drawn)	0.736%
Cc1ccc(CCNC(=O)CCNS(=O)(=O)c2ccc3nc(O)ccc3c2)cc1	-7.1%
O=C(Cn1cnc2ccccc21)Nc1cccc(C(F)(F)F)c1	-4.61%
CN(Cc1ccccc1)S(=O)(=O)c1nnc(NC(=O)CN2C(=O)c3ccccc3C2=O)s1	-0.959%
CCOc1ccccc1NC(=O)CCC1CCCC1	-0.872%
COc1ccc(/C=C2/C(=O)c3ccc(C(=O)O)cc3C2=O)cc1OC	-1.6%
c1ccc(CC(NCc2c[nH]c3ccccc23)c2ccccc2)cc1 (stereo not drawn)	-5.16%
NC(=O)C(Cc1ccccc1)C1=NC2(CCCC2)Cc2ccccc21 (stereo not drawn)	-0.884% and -3.26%
Cc1cccc(C)c1NC(=O)CN1C(=O)S/C(=C/c2cc(C)n(-c3ccncc3)c2C)C1=O	-2.29%
CC(C)C[C@H](NC(=O)c1ccc(OCc2csc(N3CCNCC3)n2)cc1)C(=O)NCC#N	-3.04%
N#Cc1cc2c(=O)n3ccccc3nc2n(CC2CCCO2)c1=N (stereo not drawn)	-3.27%
Cc1ccc(S(=O)(=O)N2CCC(C(=O)N3CCC(C(=O)NCc4ccccc4)CC3)CC2)cc1	3.66%
Cc1cc(C)c(NS(=O)(=O)c2ccc(NC(=O)c3cccs3)cc2)c(C)c1	5.47%

SMILES	% Inhibition @ 10 uM
CCCOC(=O)c1ccc(NC(=O)c2ccc(-c3ccccc3)cc2)cc1	1.26%
O=c1oc(-c2ccc(-c3ccccc3)cc2)nc2ccccc12	-0.233%
CCN1CCN(c2nc3c(c(=O)[nH]c(=O)n3C)n2CCCSc2ncccn2)CC1	-6.43%
CC1=C(C(=O)Nc2ccccc2C)C(c2cccc(C)c2)n2nc(CCCO)nc2N1 (stereo not drawn)	7.14%
CC1(C)CC(O)=C/C(=N/Cc2ccccc2)C1	11.8%
CCOC(=O)C1CCCn2c1nc1scc(-c3ccccc3)c1c2=O (stereo not drawn)	-0.693%
O=C(Nc1ccc(NC(=O)c2cccc(S(=O)(=O)N3CCCCC3)c2)cc1)c1ccccc1	-9.31%
O=P(O)(CCc1ccncc1)CN1CCCCC1	4.97%
COCCCNC(=O)c1ccc(CS(=O)(=O)c2ccccc2C)o1	3.77%
COc1cc(-n2c(C)nc3cc(C(=O)NCc4ccc(F)cc4)ccc32)cc(OC)c1OC	-0.458%
COc1cccc(/C=C/C(=O)NCC(=O)O)c1OC	-8.34%
O=C(Nc1ccccc1)c1ccccc1NC(=O)C(F)(F)F	7.09%
O=C1CCc2cccc3c(O)c(-c4ccccc4)c(O)c1c23	0.674%
CC(=O)c1ccc(NS(=O)(=O)c2cccc(C(F)(F)F)c2)cc1	-7.83%
COc1cc2c(cc1OC)C(c1ccc(Cl)cc1Cl)N(C)CC2 (stereo not drawn)	-4.3%
CCN(CC)CCC(=O)N1N=C(c2ccc(C)cc2)CC1c1ccc(OC)cc1 (stereo not drawn)	0.884%
COc1cccc(CNC(=O)CN(C)c2nn3c(=O)cc(C)nc3s2)c1	6.06%
O=C(NCCc1nc2ccccc2n1C/C=C/c1ccccc1)c1ccco1	-2.99%
Cc1cc(Nc2ccc(Br)cc2)nc(-c2ccccc2O)n1	6.15%
O=C(c1ccc(C#Cc2ccccc2)cc1)N1CCN(c2ccccn2)CC1	-6.83%
Cc1c(C(=O)NCCC2=CCCCC2)oc2ccc(S(=O)(=O)N3CCOCC3)cc12	6.66%
CCn1nc(-c2ccncc2)nc2c(=O)n(C)c(=O)nc1-2	5.92%
N#C/C(=C(/O)C(F)(F)F)c1nc2ccccc2[nH]1	18.3%
COc1cccc(N(CC(=O)NCc2ccccc2)S(=O)(=O)c2ccccc2)c1	-1.43%

SMILES	% Inhibition @ 10 uM
COc1ccc2c(CNCCc3ccccc3C)c(C(=O)O)n(Cc3ccc(C)cc3)c2c1	-0.959%
CN(C)CCN(C(=O)C1CCCCC1)c1nc2c(F)cc(F)cc2s1	-0.0255%
N#CC1=C(n2cccc2)OC2=C(C(=O)CCC2)C1c1ccc(F)cc1 (stereo not drawn)	3.47%
O=C(NCc1ccccc1F)c1cccc(C(=O)NCc2ccccc2F)c1	1.93%
COc1ccc(C(=O)Cn2cnc3c(oc4ccccc43)c2=O)cc1	-6.05%
CS(=O)(=O)C1=NSC2=NC(=O)/C(=C\c3c[nH]c4ccccc34)C(=N)N21	-3.39%
CN(C)CCn1c(N)nc2ccccc21	5%
COc1cc(/C=C2/C(=N)N3OC(C)=CC3=NC2=O)ccc1OCCOc1ccc(Br)cc1	2%
Cc1nc2ccn(Cc3ccccc3)c(=O)c2cc1C(=O)N1CCOCC1	1.63%
FC(F)C(F)(F)c1cc(-c2ccccc2)[nH]n1	3.06%
CCCCCCNCc1ccc(Br)cc1	-4.67%
Cc1nc2c(C(=O)N(C)Cc3ccccc3)cnn2c(O)c1Cc1ccccc1F	0.723%
CN(C)Cc1ccc2c(sc3nc4n(c(=O)c32)CCCCC4)c1O	3.32%
COc1ccccc1NC(=O)CS(=O)(=O)c1ccc2ccccc2c1	-5.63%
Cn1cc(Cl)c(C(=O)NCc2cccc(F)c2)n1	-5%
Cc1cc(O)ccc1/N=C/c1c(C)nn(-c2ccc(F)cc2)c1O	-0.587%
N#CCNC(=O)C(CC1CCCCC1)C(=O)NCC1CCCCC1 (stereo not drawn)	-0.214%
COc1ccc(N2C(=O)CC(N3CCCC4CCCCC43)C2=O)cc1 (stereo not drawn)	-3.37%
Cc1ccc(-c2csc(/C(C#N)=C/c3ccc(N(C)C)cc3)n2)c(C)c1	-0.268%
CS(=O)(=O)N(CC(=O)Nc1cccnc1)c1cccc2ccccc12	-5.58%
NC(=O)CSc1nc2ccccc2n1CC(=O)N1CCCCC1	-3.19%
O=C(NC1CCCCCC1)c1cc(S(=O)(=O)N2CCCCC2)ccc1Cl	-6.25%
COc1cc(-c2nn3c(Cc4ccccc4)nnc3s2)cc(OC)c1OC	6.49%
COc1ccc(C(=O)Nc2ccc(C)c(O)c2)cc1	-1.42%

SMILES	% Inhibition @ 10 uM
FC(F)(F)c1cccc(N2CCN(Cc3ccc4ccccc4c3)CC2)c1	-1.86%
CCOc1ccc(C2C(C#N)=C(N)OC3=C2C(=O)CCC3)c(OCC)c1 (stereo not drawn)	-2.88%
CCCc1nn(-c2ccc(F)cc2)c(O)c1/C=N/Cc1ccc(F)cc1	-7.55%
O=C(NCc1ccccc1)C1CCCN1S(=O)(=O)c1cccc2cccnc12 (stereo not drawn)	-2.42%
COc1ccc(N2C(=O)c3ccccc3NC2c2ccc(F)cc2)cc1 (stereo not drawn)	-2.44%
CC1(c2ccccc2)CC(C)(C)N(C(=O)CSC#N)c2ccccc21 (stereo not drawn)	-2.05%
O=C(O)C1Cc2c([nH]c3ccccc23)C(c2cccnc2)N1 (stereo not drawn)	-3.62%
O=C1C=C/C(=N\S(=O)(=O)c2ccc3ccccc3c2)C=C1Sc1nc2ccccc2s1	9.56%
Cc1ccc(C)n1-c1nnc(N2CCC(C(=O)N3CCN(C4CCCCC4)CC3)CC2)s1	7.31%
Cc1cccc2sc(NC(=O)C(NS(=O)(=O)c3cccs3)c3ccccc3)nc12 (stereo not drawn)	0.0654%
CCSc1cc(C)nc2ncnn12	7.56%
Cn1nc(C(=O)N2CCN(c3ncccn3)CC2)c2c1-c1ccccc1SC2	7.85%
Cc1ccc(-c2cc(C(F)(F)F)n3nc(C(=O)N(C)Cc4cnn(C)c4C)cc3n2)cc1	0.964%
Cc1cc(C)c2oc(-c3ccc(NC(=O)c4ccco4)cc3)nc2c1	0.52%
O=S(=O)(c1ccc2[nH]c3c(c2c1)CCCCC3)N1CCn2c1nc1ccccc12	-4.13%
CCN(Cc1ccccc1)C(=O)c1nn(C)c2c1CSc1ccccc1-2	15.8%
Cc1ccc(-c2cc(C(F)F)n3ncc(C(=O)N(C)C45CC6CC(CC(C6)C4)C5)c3n2)cc1	2.46%
Cc1cc(=O)n2nc(N3CCCC(C(=O)NCc4ccc5c(c4)OCO5)C3)sc2n1 (stereo not drawn)	6.06%
CCOc1ccc(NS(=O)(=O)c2ccc(NC(=O)[C@@H]3CCCC[C@@H]3C(=O)O)cc2)cc1	-0.173%
CCOc1ccc(-c2cc(C)n3nc(C(=O)Nc4cccnc4Cl)cc3n2)cc1	3.44%
CCN1CC2=C(OC(N)=C(C#N)C2c2cccs2)/C(=C/c2cccs2)C1 (stereo not drawn)	3.05%
COc1ccc(NC(=O)Nc2ccc(F)cc2)cc1	2.94%
O=C(NCC12CC3CC(CC(C3)C1)C2)c1nc(-c2ccc(C(F)(F)F)cc2)no1	-3.07%
COc1cc2c(cc1OC)C(c1cc(OC)c(OC)c(OC)c1)NCC2 (stereo not drawn)	-5.74%
